From the supplement of paper PMC12217912
The other results are listed elsewhere or left out. The full chains were built here from the parent and the listed change. Inactive controls read about 0.05.

B1: TEV protease; numbered along this chain (parent)
chain: MGESLFKGPRDYNPISSSICHLTNESDGHTTSLYGIGFGPFIITNKHLFRRNNGTLVVQSLHGVFKVKDTTTLQQHLVDGRDMIIIRMPKDFPPFPQKLKFREPQREERICLVTTNFQTKSMSSMVSDTSCTFPSGDGIFWKHWIQTKDGQCGSPLVSTRDGFIVGIHSASNFTNTNNYFTSVPKNFMELLTNQEAQQWVSGWRLNADSVLWGGHKVFMVKPEEPFQPVKEATQL

Variants of: B1
Experiment: raw area under fraction-flipped curve 0-4 h after induction (AUC4h, not background-subtracted), DNA-recorder readout of cleavage of the substrate (dimensionless); higher = more cleavage of the substrate by the protease variant
Details: temperature: 34 °C; time window: 0-4 h after rhamnose induction
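Note: Bxb1 expression induced with 0.2% (w/v) L-rhamnose at OD600 near 0.5, cultures sampled hourly, flipped fraction per protease–substrate barcode pair counted by paired-end Illumina sequencing.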

Variant	area with substrate ENDYFQS	area with substrate ENIYFQS	area with substrate ENMYFQS	area with substrate ENNYFQS	area with substrate ENQYFQS	area with substrate ENSYFQS	area with substrate ENVYFQS	area with substrate ENEYFQS	area with substrate ENFYFQS	area with substrate ENGYFQS
Q146F	0.043	0.116	0.0972	0.0633	0.0366	0.0646	0.0852	–	–	–
P9I	0.0436	–	0.123	–	0.0508	0.0591	–	0.0749	0.0478	0.0552
M219N	0.049	–	–	–	0.051	0.0675	–	0.0653	–	0.041
F226T	–	–	–	–	–	–	0.0828	0.0541	–	–
K142A	0.0282	–	–	0.0388	0.0556	–	0.0034	–	0.0492	–
K221G	–	–	0.0727	–	0.0455	0.118	–	0.0645	0.0619	0.0645
V217I	0.0574	–	0.0729	0.0734	0.0597	0.0506	0.084	0.0663	–	0.0544
F6P	–	–	–	–	0.0502	–	0.0785	0.0464	–	–
Y34A	–	–	0.0563	0.0623	0.0647	0.0656	0.0454	–	0.0539	0.0661
K230H	0.0582	–	0.0918	0.0682	0.0645	0.0623	–	0.0619	0.0617	0.0591
R106M	–	–	0.177	0.0645	0.0592	0.0614	0.0371	0.0524	0.0618	0.0706
H62L	0.0489	–	0.0639	0.058	–	0.0702	0.0645	–	0.0547	–
F101R	0.0502	–	–	–	0.0485	0.0596	0.0731	0.0472	–	0.0439
P222K	0.0468	–	0.0683	–	0.0646	0.0543	–	0.057	–	–
F173Y	–	–	0.0641	0.0588	0.0532	0.0546	0.0571	0.07	0.056	–
L211R	0.0478	–	–	–	–	0.0564	–	–	0.0561	–

Same assay, conditions: temperature: 34 °C; time window: 0-4 h after rhamnose induction

Variant	area with substrate ENHYFQS	area with substrate ENRYFQS	area with substrate ENTYFQS	area with substrate ENYYFQS	area with substrate ENKYFQS	area with substrate ENPYFQS	area with substrate ENWYFQS	area with substrate ENCYFQS
P9I	0.0271	0.056	0.0843	0.0597	–	–	–	–
M219N	–	–	0.0448	–	0.0671	0.0838	–	–
F226T	0.0642	–	–	–	0.0355	0.0512	0.0609	–
K142A	0.0672	0.0616	–	–	–	0.0684	0.0097	–
K221G	–	–	0.0717	0.0608	0.04	0.0558	–	0.0614
V217I	0.0358	–	–	–	0.041	0.0548	–	0.0743
F6P	–	–	–	–	–	–	0.0475	–
Y34A	0.053	–	–	–	0.0506	–	0.0469	–
K230H	0.0546	0.0605	0.0431	–	0.0501	0.0594	–	0.069
R106M	0.0538	–	0.17	0.0625	–	–	–	–
H62L	0.0485	0.0595	0.0725	–	–	0.0778	–	–
F101R	–	–	0.0587	0.0663	–	–	0.0729	–
P222K	–	0.05	0.0428	0.0122	–	–	–	–
F173Y	–	–	0.0731	0.0555	–	0.046	0.0762	0.0627
L211R	–	0.089	–	–	–	0.0668	0.064	0.073
